Laboratory results taken from PubChem BioAssay AID504339 (National Center for Advancing Translational Sciences (NCATS), 2011).
Among all 390,000 compounds or so, about 17,000 (4.4%) were called active. The inconclusive results got no clear call from the source; some entries with a clear call stand among them for comparison. Calls come from the whole dose curve; as a rule, active = well fitted inhibition curve with a large enough effect; inconclusive = small, poorly fitted or top-dose-only effect; inactive = no such curve, though single readings can be large or run the other way. Where the call is inconclusive, the potency comes from a doubtful curve fit.

The compounds below were run against Lysine-specific demethylase 4A (Homo sapiens) (UniProt O75164) (assay: qHTS Assay for Inhibitors of JMJD2A-Tudor Domain). Settings: AlphaScreen JMJD2A-Tudor / H3K4me3 peptide binding; series mostly up to 114 µM.
Sequence of UniProt O75164 (O75164 whole entry, looked up, the tested form may be a part): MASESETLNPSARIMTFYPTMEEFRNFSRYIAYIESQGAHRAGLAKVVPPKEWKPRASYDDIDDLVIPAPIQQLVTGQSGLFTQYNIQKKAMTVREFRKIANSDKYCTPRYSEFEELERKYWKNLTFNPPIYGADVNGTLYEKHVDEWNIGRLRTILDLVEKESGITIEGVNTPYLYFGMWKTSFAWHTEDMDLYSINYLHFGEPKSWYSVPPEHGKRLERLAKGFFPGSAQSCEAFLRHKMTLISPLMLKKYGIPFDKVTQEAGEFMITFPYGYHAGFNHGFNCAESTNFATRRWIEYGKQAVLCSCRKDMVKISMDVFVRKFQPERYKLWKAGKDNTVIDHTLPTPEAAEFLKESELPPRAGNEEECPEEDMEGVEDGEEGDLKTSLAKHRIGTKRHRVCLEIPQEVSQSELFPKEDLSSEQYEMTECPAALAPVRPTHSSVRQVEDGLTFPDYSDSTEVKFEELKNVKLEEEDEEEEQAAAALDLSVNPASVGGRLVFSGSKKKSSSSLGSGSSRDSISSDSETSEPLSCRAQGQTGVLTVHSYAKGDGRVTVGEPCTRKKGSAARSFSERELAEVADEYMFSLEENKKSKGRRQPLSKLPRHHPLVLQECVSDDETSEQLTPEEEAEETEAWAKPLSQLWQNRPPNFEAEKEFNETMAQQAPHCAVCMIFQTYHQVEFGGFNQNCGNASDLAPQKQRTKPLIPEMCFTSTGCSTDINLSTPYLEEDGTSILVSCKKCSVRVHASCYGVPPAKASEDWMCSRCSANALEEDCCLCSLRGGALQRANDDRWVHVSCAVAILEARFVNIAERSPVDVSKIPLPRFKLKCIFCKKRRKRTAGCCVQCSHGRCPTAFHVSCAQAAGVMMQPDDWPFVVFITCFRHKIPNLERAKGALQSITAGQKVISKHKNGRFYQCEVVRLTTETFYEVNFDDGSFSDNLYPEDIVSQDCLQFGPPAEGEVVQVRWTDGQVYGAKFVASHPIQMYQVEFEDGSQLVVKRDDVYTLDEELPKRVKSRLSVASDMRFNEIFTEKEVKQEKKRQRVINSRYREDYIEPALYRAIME
Note: nearly all actives have a fitted effect of over 50% in size.
Potency is the fitted concentration of half-maximal effect; tags give direction and shape of the fitted curve.

Row | SMILES | Potency
1 | Cc1cc(C)c(S(=O)(=O)n2c([N+](=O)[O-])cnc2C)c(C)c1 | inconclusive: 56.2 µM [inhibitor, partial curve, poor fit]
2 | CCOc1ccc(-c2nn(CC(=O)NC3CCCC3)c3c2cnc2ccc(F)cc23)cc1 | inactive
3 | O=C(CSc1nnc(Nc2ccccc2F)s1)NC(=O)CN1CCCC1=O | inconclusive: 89.1 µM [inhibitor, single point]
4 | COc1cccc(C(=O)Nc2cccc(-c3cn4c(C)csc4n3)c2)c1OC | inconclusive: 56.2 µM [inhibitor, partial curve]
5 | CC[n+]1ccc2cc(OC)c(OC)cc2c1Cc1ccc(OC)c(OC)c1 | active: 25.1 µM
6 | CC(C)(C)SCCNC(=O)c1ccc(Cl)c([N+](=O)[O-])c1 | inconclusive: 56.2 µM [inhibitor, partial curve]
7 | O=C(CCN1C(=O)/C(=C/c2cccs2)SC1=S)Nc1ccc(C(=O)O)cc1 | inconclusive: 50.1 µM [inhibitor, partial curve]
8 | Cc1cccc(Nc2nc(N)c([N+](=O)[O-])c(NCCO)n2)c1 | inactive
9 | CCc1nn(Cc2ccc(Cl)cc2)c(=O)c2cc3cc(C)ccc3n12 | inconclusive: 39.8 µM [inhibitor, single point]
10 | O=[N+]([O-])c1cc([N+](=O)[O-])c(N2CCCCCC2)cc1NCCO | inconclusive: 50.1 µM [inhibitor, partial curve, poor fit]
11 | CCOC(=O)Nc1ccc2c(c1)N(C(=O)N1CCN(C)CC1)c1ccccc1S2 | inconclusive: 50.1 µM [inhibitor, partial curve]
12 | O=C(c1ccccn1)c1cc2ccccc2n1S(=O)(=O)c1ccccc1 | inconclusive: 31.6 µM [inhibitor, partial curve]
13 | Cc1cnc(NC(=O)c2c(Cl)cnn2C)s1 | inactive
14 | COC(=O)C1=C(C)N(Cc2ccccc2)C(=O)/C1=C\c1ccco1 | inconclusive: 14.1 µM [inhibitor, single point]
15 | O=C(Cc1ccccc1)Nc1nc(-c2cccs2)cs1 | inactive
16 | O=S(=O)(Nc1ccc2c(c1)OCCO2)c1cccc(F)c1 | inactive
17 | CC1CCCC/C1=N/Nc1ccc([N+](=O)[O-])cc1[N+](=O)[O-] (stereo unspecified) | active: 50.1 µM
18 | Nc1ccc(Nc2nc(-c3cccs3)cs2)cc1 | inconclusive: 63.1 µM [inhibitor, partial curve, poor fit]
19 | Cc1ccn2cc(-c3cccc(S(=O)(=O)N4CCCCC4)c3)nc2c1 | inconclusive: 35.5 µM [inhibitor, partial curve]
20 | Cc1ccc(NC(=O)c2sc3nc4c(cc3c2N)CN(Cc2ccccc2)CC4)cc1 | inactive
21 | CCC(=O)N[C@@H]1CC(C(C)(C)NC(=O)CC)CC=C1C (stereo partly specified) | active: 50.1 µM
22 | c1ccc2c(Nc3ccc(N4CCOCC4)cc3)nc(N3CCOCC3)nc2c1 | inactive
23 | O=C1/C(=C/c2ccccn2)SC(=S)N1CCc1ccccc1 | inactive
24 | Cc1oc2ncn(C)c(=O)c2c1C(=O)N1CCN(c2ccccc2F)CC1 | inactive

Row | SMILES | Potency
25 | COc1ccc2c(c1)c1c(c(=O)n(CCc3ccccc3)c(=O)n1Cc1ccc(F)cc1)n2C | inactive
26 | CCN(CC)C(=O)CN(c1cccc(OC)c1)S(=O)(=O)c1ccc(C)cc1 | inconclusive: 100 µM [inhibitor, single point]
27 | OC(CNCCCCNCC(O)C(F)(F)F)C(F)(F)F (stereo unspecified) | inconclusive: 39.8 µM [inhibitor, single point]
28 | O=C(NCCCN1CCN(c2ccc(F)cc2)CC1)c1ccc2nc(Cc3ccccc3)oc2c1 | inconclusive: 50.1 µM [inhibitor, partial curve]
29 | CC(C)n1c(O)c(N=NC(=O)C2COc3ccccc3O2)c2ccccc21 (stereo unspecified) | inconclusive: 39.8 µM [inhibitor, full curve]
30 | N#Cc1nc(Cc2cccc3ccccc23)oc1N1CCN(c2ccccc2)CC1 | inconclusive: 5.01 µM [inhibitor, full curve, poor fit]
31 | O=C1c2ccccc2NC(c2ccc(-c3cccs3)o2)N1O (stereo unspecified) | inactive
32 | COc1ccc2c(C)nc(Nc3nc(-c4ccccc4)cc(=O)[nH]3)nc2c1 | inconclusive: 44.7 µM [inhibitor, partial curve]
33 | CCOc1ccc(CN2CCc3nc(Nc4ccc(OC)cc4OC)ncc3C2)cc1 | active: 50.1 µM
34 | Cc1ccc2c(=O)cc(C(=O)Nc3cccc(C(F)(F)F)c3)oc2c1C | inactive
35 | Nc1ccccc1C#Cc1ccc([N+](=O)[O-])cc1 | inconclusive: 50.1 µM [inhibitor, partial curve]
36 | COC(=O)c1ccc(OCC2c3cc(OC)c(OC)cc3CCN2C(=O)c2ccc(F)cc2)cc1 (stereo unspecified) | inactive
37 | O=C(C1=NN[C@@H]2C(=O)N(c3cccc(F)c3)C(=O)[C@H]12)c1cnccn1 | active: 17.8 µM
38 | O=C(Nc1ccc(F)c(Cl)c1)c1cccnc1 | inconclusive: 15.8 µM [inhibitor, partial curve, poor fit]
39 | COCCCNc1oc(-c2ccc(COc3ccc(Cl)cc3)o2)nc1C#N | inconclusive: 44.7 µM [inhibitor, partial curve]
40 | O=C(COc1ccc2ccccc2c1Br)NC(=S)Nc1cccc(CO)c1 | inconclusive: 70.8 µM [inhibitor, single point]
41 | O=C1/C(=C/c2ccccc2[N+](=O)[O-])COc2ccccc21 | inconclusive: 44.7 µM [inhibitor, partial curve]
42 | COc1ccc(C(=O)NCC(c2ccc(N(C)C)cc2)N2CCc3ccccc32)c(OC)c1 (stereo unspecified) | inconclusive: 2.51 µM [inhibitor, partial curve, poor fit]
43 | COc1ccccc1CNC(=O)Cc1c[nH]c2ccccc12 | inactive
44 | COc1cc2nc(CN(C)CC(=O)Nc3ccc(N4CCOCC4)cc3)[nH]c(=O)c2cc1OC | inactive
45 | COc1ccc(-c2nc3c(C#N)c[nH]n3c2NC2CCCC2)c(OC)c1 | inconclusive: 79.4 µM [inhibitor, partial curve]
46 | CC(/C=C1\SC(=S)N(CCCC(=O)Nc2ccc(C(=O)O)c(O)c2)C1=O)=C\c1ccccc1 | active: 39.8 µM
47 | Cc1cccc(C(=O)NCc2ccco2)c1 | inconclusive: 50.1 µM [inhibitor, partial curve]
48 | CCc1cc(C(=O)Nc2cnn(Cc3ccccc3C)c2)no1 | inactive

Row | SMILES | Potency
49 | O=C(Oc1c(Br)cc(C(=S)N2CCOCC2)cc1Br)c1ccc(Cl)cc1 | inconclusive: 44.7 µM [inhibitor, partial curve]
50 | COC(=O)C(Cc1cncn1COCc1ccccc1)NC(=O)OC(C)(C)C (stereo unspecified) | inconclusive: 20 µM [inhibitor, partial curve, poor fit]
51 | Fc1ccc(-c2noc3ncnc(NCCCN4CCN(c5ccccc5)CC4)c23)cc1 | inconclusive: 79.4 µM [inhibitor, partial curve]
52 | Cc1ccc2c(c1)nnn2C1CCN(S(=O)(=O)c2ccc(C(=O)O)cc2)CC1 | inactive
53 | NC(=O)c1ccc(NC(=O)COC(=O)CCC(=O)c2ccc(Cl)cc2)cc1 | inconclusive: 20 µM [inhibitor, full curve, poor fit]
54 | COc1ccc(/C=C2/Sc3ccc(C(=O)NCCCN4CCOCC4)cc3NC2=O)cc1OC | inconclusive: 14.1 µM [inhibitor, full curve, poor fit]
55 | O=C(CSc1ccc(Cl)cc1)Nc1nnc(-c2cccc([N+](=O)[O-])c2)s1 | inactive
56 | COc1cc(C(=O)Oc2ccccc2)ccc1OCc1c(C)noc1C | inconclusive: 39.8 µM [inhibitor, single point]
57 | O=C1NC[C@H](Cc2ccccc2)N(C[C@H]2CCCN2C[C@H](Cc2ccc(O)cc2)N2C[C@H](Cc3ccc(O)cc3)N(CC3CCCCCC3)C(=O)C2=O)C1=O | inconclusive: 89.1 µM [inhibitor, partial curve]
58 | COc1cccc(/C=C2\SC(=O)N(CCC(=O)NNC(=O)c3ccccc3Cl)C2=O)c1 | inconclusive: 89.1 µM [inhibitor, single point]
59 | CCN(CC)S(=O)(=O)c1ccc(N=Nc2cc(C)cc(Br)c2O)cc1 | inconclusive: 7.08 µM [inhibitor, full curve]
60 | O=C(COc1ccccc1)Nc1ccc2nc(SCCOc3ccccc3)sc2c1 | inactive
61 | OCc1nn2c(c1Br)NC(c1ccccc1)CC2C(F)(F)F (stereo unspecified) | inconclusive: 35.5 µM [inhibitor, single point]
62 | COc1cc(/C=C(\C#N)c2nc3ccccc3[nH]2)cc(OC)c1O | inconclusive: 56.2 µM [inhibitor, partial curve]
63 | COc1ccc2c(-c3ccc(OCCN4CCOCC4)cc3)c(-c3ccccc3OC)sc2c1 | inconclusive: 25.1 µM [inhibitor, partial curve]
64 | COc1cc(C[C@@H](C)[C@@H](C)Cc2ccc(O)c(OC)c2)ccc1O | inconclusive: 79.4 µM [inhibitor, single point]
65 | NC(=O)CSc1nnc2sc3ccccc3n12 | inactive
66 | COc1ccc(/C(C)=N/Nc2ccc(F)cc2F)c(O)c1 | inactive
67 | CCN(CC(=O)Nc1ccccc1C(F)(F)F)C(=O)c1ccccc1OCc1ccc(F)cc1 | inactive
68 | Cc1ccc(N2C(=O)/C(=C/c3ccco3)SC2=S)cc1 | inconclusive: 11.2 µM [inhibitor, full curve, poor fit]
69 | CN1CCN(C(=S)c2ccc(-c3cccc(Cl)c3Cl)o2)CC1 | active: 28.2 µM
70 | Oc1c(C=NCc2ccccc2)sc2ccccc12 | active: 89.1 µM
71 | CC1CC=CC2C1C(=O)N(Cc1ccccc1)C2c1ccc(F)c(/C=C/c2ccccc2)c1 (stereo unspecified) | inactive
